The list shows a part of the results. Values were computed here from the reads of four pooled replicates and scatter widely.

The target of the experiment is T1, Pho4 (S. cerevisiae) (UniProt P07270).
T1 sequence: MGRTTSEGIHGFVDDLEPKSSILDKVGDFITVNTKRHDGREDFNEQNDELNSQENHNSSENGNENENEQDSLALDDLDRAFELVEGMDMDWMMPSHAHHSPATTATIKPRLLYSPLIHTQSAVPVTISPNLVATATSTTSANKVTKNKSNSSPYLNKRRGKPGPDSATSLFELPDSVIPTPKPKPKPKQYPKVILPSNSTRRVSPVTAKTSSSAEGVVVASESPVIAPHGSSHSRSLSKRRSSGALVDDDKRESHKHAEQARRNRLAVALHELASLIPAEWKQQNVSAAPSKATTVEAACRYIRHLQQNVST
The experiment can be described thus: relative binding free energy (BET-seq); higher = weaker binding. Particulars: reference: library average.
As for TGCTACACGTGGTTTT, the “relative binding free energy” value is 0.02 kcal/mol.

TTCTGCACGTGTATGG: the “relative binding free energy” value was found to be 0.09 kcal/mol.

Take GTGTTCACGTGGGTCA: the “relative binding free energy” value is 0.07 kcal/mol.

Regarding GAGTACACGTGTTCGT, the “relative binding free energy” value turned out to be 0.15 kcal/mol.

As to ATTTGCACGTGGTACA, the “relative binding free energy” value was -0.1 kcal/mol.

With TATGTCACGTGCGGGT, the “relative binding free energy” value is 0.03 kcal/mol.

As to GGTAACACGTGCGGTT, the “relative binding free energy” value is 0.07 kcal/mol.

As to TCGTACACGTGATGAG, the “relative binding free energy” value came out at 0.31 kcal/mol.

On to TGAACCACGTGTGGTG, for which the “relative binding free energy” value was found to be 0.01 kcal/mol.

For CTTTTCACGTGTAAGG, the “relative binding free energy” value stood at 0.08 kcal/mol.

In the case of TAATTCACGTGTGTAC, the “relative binding free energy” value was found to be 0.29 kcal/mol.

Take ATAGTCACGTGTCTAT: the “relative binding free energy” value was determined as 0.1 kcal/mol.

In the case of AATAGCACGTGGGTAA, the “relative binding free energy” value is -0.13 kcal/mol.

For TTCTTCACGTGGGTAA, the “relative binding free energy” value worked out at 0.15 kcal/mol.

Turning to GGCAGCACGTGGCAGG, the “relative binding free energy” value was -0.22 kcal/mol.

With TTTCGCACGTGGCGTG, the “relative binding free energy” value was -0.15 kcal/mol.

Take TGTAGCACGTGCGGCG: the “relative binding free energy” value was -0.11 kcal/mol.

For the sequence TTCTTCACGTGTAGAG, the “relative binding free energy” value turned out to be 0.16 kcal/mol.

For the sequence TTGTTCACGTGCGTGA, the “relative binding free energy” value was determined as 0.13 kcal/mol.

On to TTAGACACGTGGGCGG, for which the “relative binding free energy” value is -0.16 kcal/mol.

Consider TGGTTCACGTGGCTAA, for which the “relative binding free energy” value is 0.24 kcal/mol.

With GCTCGCACGTGGGTTT, the “relative binding free energy” value is -0.11 kcal/mol.

Take AGGGACACGTGGCTTA: the “relative binding free energy” value amounted to 0.01 kcal/mol.

For the sequence GGGGCCACGTGCTCGG, the “relative binding free energy” value is -0.11 kcal/mol.

As for ACGGGCACGTGTAAGT, the “relative binding free energy” value is 0.07 kcal/mol.

Consider ACGTGCACGTGTGTAA, for which the “relative binding free energy” value was -0.05 kcal/mol.

For the sequence TTTTTCACGTGGTACG, the “relative binding free energy” value amounted to 0.22 kcal/mol.

Turning to GAGGACACGTGTAGAT, the “relative binding free energy” value was 0.26 kcal/mol.

With GGGTGCACGTGGGGCT, the “relative binding free energy” value was -0.11 kcal/mol.

As to CGGGACACGTGGTGGG, the “relative binding free energy” value was -0.03 kcal/mol.

AATGACACGTGTATAG: the “relative binding free energy” value worked out at 0.08 kcal/mol.

Regarding AATTGCACGTGGAATT, the “relative binding free energy” value was 0.15 kcal/mol.

In the case of TTTTTCACGTGGGGGT, the “relative binding free energy” value amounted to 0.19 kcal/mol.

On to TTTAGCACGTGAGGAC, for which the “relative binding free energy” value was 0.21 kcal/mol.

For GTGGTCACGTGTTTAT, the “relative binding free energy” value stood at 0.14 kcal/mol.

Take TGTAACACGTGTGGGC: the “relative binding free energy” value was 0.17 kcal/mol.

TCATGCACGTGGTCGT: the “relative binding free energy” value is -0.14 kcal/mol.

On to AGTTGCACGTGGATGT, for which the “relative binding free energy” value stood at 0 kcal/mol.

As to GTCTGCACGTGAGCGG, the “relative binding free energy” value was found to be 0.21 kcal/mol.

On to GGGTCCACGTGTTGAA, for which the “relative binding free energy” value amounted to 0.19 kcal/mol.

Turning to TGTTTCACGTGCTCGG, the “relative binding free energy” value is 0.21 kcal/mol.

In the case of AGTCACACGTGTTGGT, the “relative binding free energy” value stood at 0.06 kcal/mol.

For AGTGGCACGTGTTCGG, the “relative binding free energy” value came to 0 kcal/mol.

Regarding GTTAGCACGTGTGGGC, the “relative binding free energy” value is 0.09 kcal/mol.

For the sequence TTCATCACGTGCGTGG, the “relative binding free energy” value came to 0.12 kcal/mol.

For TGTACCACGTGTGGTG, the “relative binding free energy” value is -0.02 kcal/mol.

TTTAACACGTGCTTTT: the “relative binding free energy” value is -0.1 kcal/mol.

Take TTTCTCACGTGTAGAT: the “relative binding free energy” value came out at 0.32 kcal/mol.

TGGGCCACGTGGGATT: the “relative binding free energy” value is -0.04 kcal/mol.

Regarding GTGTCCACGTGGGGTA, the “relative binding free energy” value is -0.2 kcal/mol.

With GGCGTCACGTGGAATG, the “relative binding free energy” value was 0.21 kcal/mol.

ATGGACACGTGGATAT: the “relative binding free energy” value is 0.13 kcal/mol.

On to ATGTTCACGTGTCTAT, for which the “relative binding free energy” value is 0.18 kcal/mol.

Turning to AGTGTCACGTGGTATA, the “relative binding free energy” value came to 0.07 kcal/mol.

For GTCAACACGTGTGGAG, the “relative binding free energy” value is 0.08 kcal/mol.

Regarding TCGTACACGTGATTTA, the “relative binding free energy” value was found to be 0.26 kcal/mol.

For TTCTGCACGTGGTTGG, the “relative binding free energy” value was -0.03 kcal/mol.

CAGTACACGTGGAGGT: the “relative binding free energy” value came out at 0.1 kcal/mol.

In the case of AGCTTCACGTGGGAGG, the “relative binding free energy” value came out at 0.09 kcal/mol.

Regarding TGAGGCACGTGTTCTT, the “relative binding free energy” value is -0.09 kcal/mol.

Turning to AAGGTCACGTGTCTGG, the “relative binding free energy” value was 0.2 kcal/mol.

For the sequence AGGTTCACGTGAATGA, the “relative binding free energy” value is 0.4 kcal/mol.

Regarding GTATTCACGTGGCTTC, the “relative binding free energy” value is 0.34 kcal/mol.

Take GTTAACACGTGTTATA: the “relative binding free energy” value stood at 0.04 kcal/mol.

TGCTTCACGTGTGTTC: the “relative binding free energy” value was 0.39 kcal/mol.

For the sequence ATATGCACGTGGAAAT, the “relative binding free energy” value came out at 0.01 kcal/mol.

Take GCGTTCACGTGTCGTT: the “relative binding free energy” value was 0.54 kcal/mol.

Take TTCATCACGTGGTGGG: the “relative binding free energy” value amounted to 0.1 kcal/mol.

For the sequence CAGGTCACGTGATGTG, the “relative binding free energy” value worked out at 0.28 kcal/mol.

Consider GAGTGCACGTGTGGAC, for which the “relative binding free energy” value was found to be 0.18 kcal/mol.

As to GTTGGCACGTGTGCTT, the “relative binding free energy” value amounted to 0.03 kcal/mol.

Take GGGCGCACGTGATATT: the “relative binding free energy” value amounted to 0.26 kcal/mol.

Regarding CGTTTCACGTGATGTT, the “relative binding free energy” value came out at 0.3 kcal/mol.

As to AATAACACGTGGTGTT, the “relative binding free energy” value is -0.29 kcal/mol.

For AGGGGCACGTGGTCTT, the “relative binding free energy” value is -0.12 kcal/mol.

Regarding GTTAACACGTGGGCTA, the “relative binding free energy” value is -0.15 kcal/mol.

Consider GGGAACACGTGGTGAA, for which the “relative binding free energy” value amounted to 0.04 kcal/mol.

GCGGTCACGTGATATG: the “relative binding free energy” value was 0.22 kcal/mol.

For AGTTACACGTGTTCGT, the “relative binding free energy” value amounted to 0 kcal/mol.

With AATTTCACGTGGACGG, the “relative binding free energy” value turned out to be 0.37 kcal/mol.

Regarding TGCTACACGTGAGTGT, the “relative binding free energy” value came out at 0.22 kcal/mol.

Take TGAGGCACGTGACGGA: the “relative binding free energy” value was -0.04 kcal/mol.

For AGATTCACGTGGGTTG, the “relative binding free energy” value turned out to be 0.3 kcal/mol.

With TTTGTCACGTGGGTAC, the “relative binding free energy” value was -0.05 kcal/mol.

In the case of GTCGTCACGTGTCGTT, the “relative binding free energy” value came out at 0.11 kcal/mol.

For the sequence TGTAACACGTGGGTGT, the “relative binding free energy” value was -0.07 kcal/mol.

As to GGTTGCACGTGCAGAT, the “relative binding free energy” value worked out at 0.14 kcal/mol.

On to AAGGGCACGTGCGTAG, for which the “relative binding free energy” value was -0.07 kcal/mol.

TATGGCACGTGCCTGG: the “relative binding free energy” value is -0.18 kcal/mol.

As to GTTGTCACGTGATGGT, the “relative binding free energy” value is 0.23 kcal/mol.

Turning to TATAGCACGTGAGGAG, the “relative binding free energy” value worked out at 0.22 kcal/mol.

On to GGGTGCACGTGGCCTG, for which the “relative binding free energy” value was -0.14 kcal/mol.

On to AAGGACACGTGTGATG, for which the “relative binding free energy” value was determined as 0.05 kcal/mol.

As to GTCGTCACGTGGTGTC, the “relative binding free energy” value is -0.03 kcal/mol.

Turning to GCGTACACGTGGGTGC, the “relative binding free energy” value was 0.06 kcal/mol.

GATTTCACGTGTTTTC: the “relative binding free energy” value is 0.23 kcal/mol.

For GCTGGCACGTGATAGT, the “relative binding free energy” value is -0.11 kcal/mol.

In the case of GCGGGCACGTGGCAGG, the “relative binding free energy” value is -0.14 kcal/mol.

Turning to AGTCTCACGTGGGTCG, the “relative binding free energy” value is -0.01 kcal/mol.

TAGTTCACGTGGGTGT: the “relative binding free energy” value worked out at 0.23 kcal/mol.

In the case of TGCGACACGTGGGGCT, the “relative binding free energy” value was -0.12 kcal/mol.

For GTAGGCACGTGCAGGT, the “relative binding free energy” value is -0.15 kcal/mol.

TACGGCACGTGGGTCT: the “relative binding free energy” value was -0.15 kcal/mol.

As for CAGGGCACGTGGGTAT, the “relative binding free energy” value was -0.1 kcal/mol.

In the case of CGCGGCACGTGAGTGA, the “relative binding free energy” value amounted to 0.14 kcal/mol.

In the case of AGGTTCACGTGTAGTG, the “relative binding free energy” value is 0.19 kcal/mol.

As for GGTATCACGTGAATGC, the “relative binding free energy” value came out at 0.39 kcal/mol.

For the sequence GTCTGCACGTGTGCGG, the “relative binding free energy” value stood at 0.07 kcal/mol.

Consider AGCGGCACGTGCGGGT, for which the “relative binding free energy” value is -0.2 kcal/mol.

Take TTCGGCACGTGAGTAA: the “relative binding free energy” value was 0.26 kcal/mol.

For the sequence TCGGGCACGTGAAGTA, the “relative binding free energy” value turned out to be 0.11 kcal/mol.

Turning to TTATCCACGTGAGTAG, the “relative binding free energy” value came out at 0.32 kcal/mol.

In the case of GGGGACACGTGGAGGA, the “relative binding free energy” value came to 0.17 kcal/mol.

With TAGAGCACGTGTGGCG, the “relative binding free energy” value was -0.08 kcal/mol.

As for TATGGCACGTGCAGGA, the “relative binding free energy” value was -0.18 kcal/mol.

Values taken from the BET-seq Pho4 binding data (Le et al. 2018).
